Laboratory results published in PubChem BioAssay AID588855 (National Center for Advancing Translational Sciences (NCATS), 2011).
The campaign covered roughly 410,000 compounds. About 5,000 (1.2%) were called active. This list was built around the results that the source calls inconclusive (neither active nor inactive); the mix of calls is not that of the screen. Calls come from the whole dose curve; as a rule, active = well fitted inhibition curve with a large enough effect; inconclusive = small, poorly fitted or top-dose-only effect; inactive = no such curve, though single readings can be large or run the other way. A potency beside an inconclusive call is a rough fit, not a confirmed value.

experiment: qHTS for Inhibitors of TGF-b; settings: HepG2 CAGA-GFP TGF-b/SMAD3 reporter, GFP fluorescence, 18 h, TGF-beta stimulated, 500 pg/mL final; series mostly up to 46.1 µM; activity, negative = inhibition: at the top concentration; note: nearly all actives have a fitted effect of over 65% in size
Procedure, shortened: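 First, reporter cells (HEPG2 CAGA-GFP) rested 2 h at 37 degrees C. Next, compounds were pinned in and TGF-beta added to 500 pg/mL final. After 18 h, GFP was imaged per cell and summed per well.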
% is set by controls: 0 for no effect and ±100 for the full control effect; potency is the fitted concentration of half-maximal effect; tags give direction and shape of the fitted curve.

Row | Structure (SMILES) | activity, negative = inhibition | Potency
1 | CN(C(=O)CCc1nnc(-c2ccc(-c3ccccc3)cc2)o1)C1CCOCC1 | inactive: -1.06% | –
2 | COC(=O)C1=C(CSc2nc3ccccc3o2)NC(=O)NC1c1cc(C)ccc1C (stereo not drawn) | – | inconclusive: 15.8 µM [inhibitor, single point]
3 | CCc1ccc(-c2csc3ncn(CC(=O)NCc4ccco4)c(=O)c23)cc1 | – | inconclusive: 35.5 µM [inhibitor, single point]
4 | Cc1cccc2nc3ccccc3cc12 | inactive: -15.6% | –
5 | COc1cc2c(cc1NC(=O)CN(C)Cc1cccc(OC)c1OC)oc1ccccc12 | – | inconclusive: 3.98 µM [inhibitor, single point]
6 | COc1cccc(-c2cnc(C(O)c3cc(Cl)cc(Cl)c3)[nH]2)c1 (stereo not drawn) | – | inconclusive: 10 µM [inhibitor, partial curve, poor fit]
7 | CC(C)c1nnc(NC(=O)CCc2ccccc2)s1 | inactive: 2.47% | –
8 | COc1ccc(-c2[nH]ncc2CN2CCC(O)(c3ccc(Cl)cc3)CC2)cc1 | – | active: 6.31 µM
9 | Nc1c(C(=O)N/N=C/c2ccccc2)cnn1-c1ccccc1 | – | inconclusive: 17.8 µM [inhibitor, partial curve]
10 | CC(=O)c1c(C)[nH]c(C(=O)OCc2c(F)cccc2Cl)c1C | – | inconclusive: 14.1 µM [inhibitor, single point]
11 | COc1ccc(-c2nc(SCC(=O)Nc3ccc4c(c3)OCO4)c(-c3ccc(OC)cc3)[nH]2)cc1 | – | inconclusive: 15.8 µM [inhibitor, partial curve, poor fit]
12 | CC(=O)Oc1ccc(C(=O)Nc2cc(NC(=O)c3ccc(OC(C)=O)cc3)cc(C(=O)NC(C)(C)C)c2)cc1 | – | inconclusive: 20 µM [inhibitor, partial curve, poor fit]
13 | O=C1[C@@H](Oc2ccccc2)[C@@H](c2ccncc2)N1c1ccccc1 | – | inconclusive: 11.2 µM [inhibitor, single point]
14 | C[C@H]1CN([C@@H](C)CO)C(=O)Cc2cc(NC(=O)C3CC3)ccc2O[C@H]1CN(C)Cc1ccc(C(=O)O)cc1 | inactive: 2.61% | –
15 | c1ccc2c(c1)nc1n2CCS1 | inactive: -7.04% | –
16 | COc1ccc(C)cc1S(=O)(=O)N1CCN(S(=O)(=O)c2cc(C)ccc2OC)CC1 | inactive: 4.31% | –
17 | COc1ccc(-c2[nH]nc3c2C(c2ccc(OC(=O)N4CCOCC4)cc2)C(C#N)=C(N)O3)cc1 (stereo not drawn) | – | inconclusive: 15.8 µM [inhibitor, single point]
18 | Cc1csc(=Nc2c(C)n(C)n(-c3ccccc3)c2=O)n1Cc1ccccc1 | – | inactive
19 | CCOc1ccc(NC(=O)c2ccc(-c3nc(COc4ccccc4)c(C)o3)cc2)cc1 | inactive: -11.7% | –
20 | CN(CC(=O)Nc1ccc(Cl)c(Cl)c1)C(=O)c1ccccc1SCC(=O)N1CCCC1 | – | inconclusive: 35.5 µM [inhibitor, single point]
21 | O=C1NC(c2cccc(OCc3ccccc3)c2)Nc2ccccc21 (stereo not drawn) | – | inconclusive: 0.631 µM [inhibitor, partial curve, poor fit]
22 | S=C1NC[C@H](CC2CCCCC2)N1CC1CCCCC1 | – | inconclusive: 25.1 µM [inhibitor, single point]
23 | COc1ccc(N(CC(=O)NCc2cccs2)S(=O)(=O)c2c(C)n[nH]c2C)cc1 | – | inconclusive: 5.62 µM [inhibitor, single point]

Row | Structure (SMILES) | activity, negative = inhibition | Potency
24 | Cc1cccc(NC(=O)CSc2nc3c([nH]c4ccccc43)c(=O)n2C)c1C | inactive: -4.89% | –
25 | CN(CC(=O)Nc1ccc(Cl)c(C(F)(F)F)c1)Cc1cc(=O)n2ccsc2n1 | inactive: 4.62% | –
26 | COc1ccc(C(C(=O)NC(C)(C)C)N(CCC(C)C)C(=O)CCC(=O)Nc2cc(C)on2)cc1 (stereo not drawn) | – | inconclusive: 22.4 µM [inhibitor, single point]
27 | COc1ccc(CCc2nnc(CCC(=O)N(C)Cc3ccnc4ccccc34)o2)cc1 | inactive: 0.217% | –
28 | O=C(O)CCc1nc(-c2ccccc2)no1 | inactive: -5.1% | –
29 | CCC(=O)NC(c1cc(Cl)c2cccnc2c1O)C1CC1 (stereo not drawn) | – | active: 2 µM
30 | Cc1ccc(CSc2nnc(-c3cccc4ccccc34)o2)cc1 | – | inconclusive: 3.16 µM [inhibitor, partial curve, poor fit]
31 | O=c1[nH]cccc1-c1nc2ccccc2n1Cc1ccccc1F | inactive: 8.79% | –
32 | CC(C)CC(N)c1csc(Nc2ccccn2)n1 (stereo not drawn) | – | inconclusive: 31.6 µM [inhibitor, single point]
33 | O=C(Cc1ccccc1)Nc1sc2c(c1C(=O)Nc1ccc(Cl)cc1)CCCC2 | – | inconclusive: 35.5 µM [inhibitor, single point]
34 | N=c1ccn(Cc2ccc(Cl)cc2Cl)cc1 | – | inconclusive: 6.31 µM [inhibitor, single point]
35 | COC(=O)C1=C(C)NC(C)=C(C(=O)OC)C1C(=O)OCC(=O)NC1CCCCC1C (stereo not drawn) | inactive: -1.09% | –
36 | CC(C)(C)n1nc2c(c1NC(=O)c1cccc(Cl)c1)CS(=O)(=O)C2 | – | inconclusive: 35.5 µM [inhibitor, single point]
37 | Cc1c(CN2CC[C@@H](N3CCN(c4ccccn4)CC3)[C@H](O)C2)[nH]c2ccc(F)cc12 | – | inconclusive: 11.2 µM [inhibitor, partial curve]
38 | C(=C\c1ccccc1)/CN1CCN(C(c2cc3ccccc3o2)c2nnnn2C2CCCCC2)CC1 (stereo not drawn) | inactive: -4.13% | –
39 | Cc1ccc(S(=O)(=O)Nc2cc(=O)[nH]c(SCc3ccc(Cl)cc3)n2)cc1 | – | inconclusive: 20 µM [inhibitor, single point]
40 | Cc1ccc(S(=O)(=O)CCC(=O)OCC(=O)c2cc(C)n(C)c2C)cc1 | inactive: -7.16% | –
41 | CCOC(=O)c1c(C)[nH]sc1=S | inactive: 15.3% | –
42 | Cc1ccccc1CNC(=O)C1CCCN(S(=O)(=O)N(C)c2ccc(F)cc2)C1 (stereo not drawn) | – | inconclusive: 5.01 µM [inhibitor, partial curve, poor fit]
43 | COCCCNC(=O)C[C@H]1C[C@H](C(=O)N2CCOCC2)[C@@]2(CCC3CCCC3)c3[nH]c4cc(-c5ccco5)ccc4c3CCN2C1=O | – | inconclusive: 35.5 µM [inhibitor, single point]
44 | COc1ccc2c(c1OC)C(=O)OC2Nc1nc(-c2ccc(-c3ccccc3)cc2)cs1 (stereo not drawn) | – | active: 7.08 µM
45 | Cc1cc2oc3c(c(=O)c2cc1C)C(c1ccc(C(C)C)cc1)N(CCCN1CCOCC1)C3=O (stereo not drawn) | – | inconclusive: 35.5 µM [inhibitor, single point]
46 | O=S(=O)(Nc1ccccc1N1CCOCC1)c1cccs1 | inactive: -16.5% | –

Row | Structure (SMILES) | activity, negative = inhibition | Potency
47 | CCOc1ccc(CC(=O)N2CCN=C2SCc2ccc([N+](=O)[O-])cc2)cc1 | – | inconclusive: 11.2 µM [inhibitor, partial curve, poor fit]
48 | Cc1ccc(-c2cc(C(=O)Nc3ccccc3C(N)=O)c3ccccc3n2)o1 | – | inconclusive: 35.5 µM [inhibitor, single point]
49 | COc1ccc(CCn2c(N3CCOCC3)nc3c2c(=O)[nH]c(=O)n3C)cc1 | – | inconclusive: 17.8 µM [inhibitor, single point]
50 | CC(C)C[C@@H](CO)N1CCN(Cc2ccc([N+](=O)[O-])cc2)CCC1=O | – | inconclusive: 5.62 µM [inhibitor, single point]
51 | CCCN(CCC)c1nc(N(CCC)CCC)[nH]c(=O)n1 | inactive: 5.31% | –
52 | CN(C)c1ccc(/C=C/c2ccnc3c(Cl)ccc(Cl)c23)cc1 | inactive: 50.9% | –
53 | COc1cccc(C(=O)C2CCCN(Cc3cn(CC(N)=O)c4ccccc34)C2)c1 (stereo not drawn) | inactive: -3.84% | –
54 | CC(C)COCC(O)CCC(=O)NNC(=S)Nc1ccccc1 (stereo not drawn) | – | inconclusive: 35.5 µM [inhibitor, single point]
55 | CCc1nnc(NS(=O)(=O)c2ccc(N/C=C\C(=O)c3ccc4ccccc4c3)cc2)s1 | – | inconclusive: 35.5 µM [inhibitor, single point]
56 | CC(C)CCN(Cc1ccco1)C(=O)c1cc2c(Cl)nc3ccccc3c2s1 | – | inconclusive: 0.112 µM [inhibitor, full curve, poor fit]
57 | O=C(C[n+]1cccc2cc(Cl)ccc21)c1ccc(I)cc1 | – | inconclusive: 35.5 µM [inhibitor, single point]
58 | CC(=O)Oc1c(Cl)cc(N(C(C)=O)S(=O)(=O)c2ccccc2)c2ccccc12 | – | inconclusive: 11.2 µM [inhibitor, partial curve, poor fit]
59 | O=C(CCNc1cccc(C(F)(F)F)c1)c1ccco1 | – | inconclusive: 20 µM [inhibitor, partial curve, poor fit]
60 | CCC1CSC(Nc2ccc(C(=O)/C=C/c3ccc(Br)cc3)cc2)=N1 (stereo not drawn) | – | active: 15.8 µM
61 | OCCN(/C=N/c1nc(-c2ccc(Br)cc2)cs1)CCO | – | inconclusive: 20 µM [inhibitor, single point]
62 | O=C(NC(=S)Nc1ccc(N2CCOCC2)c(Cl)c1)C(c1ccccc1)c1ccccc1 | inactive: 0% | –
63 | Cc1cc(NC(=O)CCC(=O)N(CC(=O)NC2CCCC2)c2ccc(Cl)cc2)no1 | inactive: 7.06% | –
64 | COc1ccc(/C=C/C(=O)Nc2c(C)nn(C)c2C)cc1COc1ccc(Br)cc1 | – | inconclusive: 35.5 µM [inhibitor, single point]
65 | COc1ccc(F)cc1S(=O)(=O)NC1CCCC1 | – | inconclusive: 28.2 µM [inhibitor, single point]
66 | Cn1c2ccccc2c2c(C(=O)N3CCN(c4ccc(F)cc4)CC3)cn(C3CCCCC3)c(=O)c21 | – | inconclusive: 35.5 µM [inhibitor, single point]
67 | COc1cc(Cl)c(C)cc1NC(=O)CSc1ncc(S(=O)(=O)c2ccc(C(C)(C)C)cc2)c(=O)[nH]1 | – | inconclusive: 35.5 µM [inhibitor, single point]
68 | Cc1ccc(NC(=O)CSC2=NN3CCCC(=O)N=C3S2)c(C)c1 | – | inconclusive: 3.16 µM [inhibitor, single point]
